# Results taken from publication PMC4336329 (PLoS ONE, 2015).
# Among all 310,000 compounds or so, about 2,200 (0.71%) showed an effect of 50% or more. The effect is printed as a negative number. The list shows a part of the results.
# Molecular target: human ether-à-go-go-related gene (hERG) potassium channel (human, UniProt Q12809)
# Experiment: primary screen, population patch clamp on CHO cells stably expressing hERG
# Chain of human ether-à-go-go-related gene (hERG) potassium channel (Q12809 whole entry, looked up): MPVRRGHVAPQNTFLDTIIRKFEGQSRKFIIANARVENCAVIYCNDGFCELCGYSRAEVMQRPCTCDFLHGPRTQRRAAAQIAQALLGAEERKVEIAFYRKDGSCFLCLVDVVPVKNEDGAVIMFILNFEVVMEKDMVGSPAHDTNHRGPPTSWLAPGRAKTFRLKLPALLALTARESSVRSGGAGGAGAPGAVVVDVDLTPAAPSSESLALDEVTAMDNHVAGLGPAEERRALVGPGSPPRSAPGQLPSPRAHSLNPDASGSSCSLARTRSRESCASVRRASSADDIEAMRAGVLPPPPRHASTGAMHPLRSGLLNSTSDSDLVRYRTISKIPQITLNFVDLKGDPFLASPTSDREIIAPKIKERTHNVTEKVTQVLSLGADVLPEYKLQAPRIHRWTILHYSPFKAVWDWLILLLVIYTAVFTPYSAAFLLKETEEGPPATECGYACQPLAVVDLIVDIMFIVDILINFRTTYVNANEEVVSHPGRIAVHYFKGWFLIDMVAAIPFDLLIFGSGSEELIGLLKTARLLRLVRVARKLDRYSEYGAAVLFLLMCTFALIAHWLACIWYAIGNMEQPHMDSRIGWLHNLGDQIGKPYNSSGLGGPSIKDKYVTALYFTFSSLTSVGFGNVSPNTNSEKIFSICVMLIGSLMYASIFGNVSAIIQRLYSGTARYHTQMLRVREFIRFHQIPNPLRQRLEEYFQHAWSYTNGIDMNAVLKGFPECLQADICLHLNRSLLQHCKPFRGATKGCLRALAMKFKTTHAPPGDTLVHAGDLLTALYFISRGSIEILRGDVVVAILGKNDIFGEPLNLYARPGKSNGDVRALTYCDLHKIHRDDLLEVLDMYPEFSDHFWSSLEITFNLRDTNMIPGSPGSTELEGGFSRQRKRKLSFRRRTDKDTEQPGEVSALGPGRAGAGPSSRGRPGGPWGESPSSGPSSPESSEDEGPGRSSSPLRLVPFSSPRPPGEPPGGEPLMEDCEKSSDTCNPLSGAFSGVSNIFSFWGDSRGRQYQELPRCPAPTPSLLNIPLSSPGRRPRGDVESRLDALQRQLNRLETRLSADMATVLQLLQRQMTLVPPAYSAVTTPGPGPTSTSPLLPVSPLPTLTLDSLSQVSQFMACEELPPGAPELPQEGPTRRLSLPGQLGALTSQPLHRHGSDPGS
row,Structure (SMILES),"hERG current change (%, negative = inhibition) at 1uM [%]"
1,CN1CCN(c2nc(C(N)=O)cc(-c3ccccc3)n2)CC1,-18.4
2,N#Cc1nc(-c2ccc(OCc3ccccc3)cc2)oc1N1CCOCC1,10.4
3,Fc1ccccc1CNC(=S)Nc1ccc(Cl)cc1,22
4,O=C(Cn1cnc([N+](=O)[O-])c1)NC1CCCC1,11.6
5,CCN(Cc1cc2ccccc2[nH]c1=O)C(=O)c1cccc([N+](=O)[O-])c1,8.31
6,COc1ccccc1N1CCN(C2CCCN(C(=O)CN3CCCC3=O)C2)CC1 (stereo not shown),14.4
7,Cc1cc2nccc(-c3ccc(Cl)cc3Cl)n2n1,4.9
8,Cc1cc(OCC(=O)NCc2ccccn2)c2c(C)c(C)c(=O)oc2c1,8.77
9,S=C(NCC(c1cccnc1)N1CCOCC1)NC1CCCCC1 (stereo not shown),5.43
10,CC1(C)CC(=O)C(N=Nc2cccc([N+](=O)[O-])c2)=C(O)C1,7.71
11,CCOC(=O)c1sc(NC(=O)CSc2nnnn2-c2ccc(C)cc2C)nc1C,17
12,CN1CCCc2cc3c(C(F)(F)F)cc(=O)oc3nc21,14.3
13,CC1(C)Cc2c(c(-c3ccco3)nc3sc4c(NCCCO)ncnc4c23)CO1,12.3
14,COc1ccc(OC)c(NS(=O)(=O)c2ccc(NC(=O)c3ccc(NS(C)(=O)=O)cc3)cc2)c1,13
15,C[C@]12N[C@H](Cc3ccccc31)c1ccccc12.O=C(O)/C=C\C(=O)O,1.39
16,O=C(COc1ccccc1Cl)Nc1ccc(NC(=O)c2ccco2)cc1,7.73
17,Cc1ccc(N2CCN(Cc3ccccc3)CC2=O)c(C)c1.O=C(O)C(=O)O,8
18,CCOc1ccc(NC(=O)c2ccc(CN3CCc4ccccc4C3)cc2)cc1,10.2
19,NS(=O)(=O)c1cc(C(=O)OC2CCOC2=O)ccc1Cl (stereo not shown),14
20,COc1ccc(NC(=O)CSc2ncn(-c3ccccc3)n2)cc1Cl,-8.44

row,Structure (SMILES),"hERG current change (%, negative = inhibition) at 1uM [%]"
1,CC1CCCC(C)N1C(=O)c1ccc(CS(=O)(=O)c2ccccc2)cc1 (stereo not shown),5.12
2,Cc1cccc(C(=O)N/C(=C/c2ccco2)C(=O)N2CCCCCC2)c1,18.3
3,CN(C)C1=C(C#N)C(c2ccccc2)=NP(N(C)C)(N(C)C)=N1,3.39
4,OC(CC#CCN1CCCC1)(c1ccccc1)c1ccccc1,9.61
5,CCOC(=O)C(=O)/C(C#N)=C/Nc1ccc(F)cc1,13.9
6,O=C(N/N=C/C(Br)=C/c1ccccc1)C1CC1,18.9
7,CC(=O)Nc1cc2c(=O)n(Cc3ccccc3)c(C)nc2cc1N1CCOCC1,13.6
8,COc1cc(OC)c2ccc(=O)oc2c1C(CCN1CCCC1)c1ccc2c(c1)OCO2 (stereo not shown),-7.33
9,COC(=O)Cn1cc(C=C2C(=O)N(C)C(=O)N(C)C2=O)c2ccccc21,15.1
10,CCOCCCN(C(=O)Cn1nnc(-c2ccc(C)o2)n1)C(C(=O)NC1CCCC1)c1ccco1 (stereo not shown),9.93
11,O=S1CC/C(=N\O)c2ccccc21 (stereo not shown),8.68
12,CCOC(=O)C(Sc1nn(C)c(=S)s1)C(C)=O (stereo not shown),3.67
13,COCCC(=O)NNS(=O)(=O)c1ccc(Cl)cc1,15.9
14,O=C1c2ccc(Oc3ccc([N+](=O)[O-])cc3)cc2C(=O)N1CCCO,-16.4
15,Cc1ccccc1NC(=O)C(C#N)Cc1cccnc1 (stereo not shown),2.57
16,Cc1ccc(NC(=O)c2snnc2C)cc1Cl,6.62
17,C/C(=N/NC(=O)COc1cc(C)ccc1C(C)C)C(=O)O,11.2
18,CC(C)NC(=S)NCc1cccs1,5.54
19,CCCCOC(=O)C1=C(N)OC2=C(C(=O)CC(C)(C)C2)[C@]12C(=O)N(C)c1ccccc12,18.3
20,COc1ccc2c(c1OC)C(=O)N(c1ccc(C)cc1)C2,14.3

row,Structure (SMILES),"hERG current change (%, negative = inhibition) at 1uM [%]"
1,Cc1ccsc1C(=O)OCC(=O)NCc1ccc(Cl)cc1,14
2,COc1c(C)cc(C(=O)C2CCCN(S(=O)(=O)c3c(C)noc3C)C2)cc1C (stereo not shown),10.8
3,CC(=O)Nc1sc(N/N=C\c2ccccc2Cl)nc1-c1cccs1,13.3
4,CCN(CC)C(=O)CSc1nc2c(sc(=S)n2CC)c(=O)n1-c1ccccc1,-13.3
5,O=C(N/N=C/c1cccc2ccccc12)c1cccs1,14.5
6,CCc1nc(C)cn1S(=O)(=O)c1cc(Br)ccc1OC,11.9
7,Cc1ccc(S(=O)(=O)c2cccc(S(=O)(=O)N3CCCC3)c2)cc1S(=O)(=O)N1CCCC1,-10.3
8,Nc1c(Cl)cc(-c2csc(N3CCCC3c3nc4cc(Cl)c(N5CCCCC5)cc4n3CCOCCO)n2)cc1Cl (stereo not shown),10.8
9,O=C(CCCn1cncn1)N1CCCC(N2CCN(c3ccc(F)cc3)CC2)C1 (stereo not shown),1.19
10,CC1(C)CC(=O)C2=C(C1)NC(=O)NC2c1ccccc1 (stereo not shown),-6.29
11,O=C(O)C1CCCCC1C(=O)Nc1nc(-c2cccs2)cs1 (stereo not shown),7.55
12,CSc1ccc(CCNC(=O)CCc2nnc3ccc(NCCCN4CCCC4=O)nn23)cc1,3.19
13,Cc1c(C(=O)NCc2ccco2)oc2ccccc12,9.16
14,Cc1cccc(OCC(=O)Nc2cccc3nsnc23)c1,15.3
15,CCCCN1c2cc(C)c(O)cc2C(C(=O)OCC)C1C (stereo not shown),8.7
16,COc1ccc(CN(C)c2ncnc3sccc23)c(OC)c1OC,-1.99
17,COc1ccc(/C=C2\C(=N\O)C3CCN2CC3)cc1.Cl,6.07
18,O=C(CS(=O)(=O)c1ccccc1)Nc1nnc(Cc2ccccc2)s1,10.8
